The campaign covered roughly 220,000 compounds. About 16,000 (7.3%) were called active. Inconclusive results, whose numbers are uncertain, are shown with a selection of clear calls. The call rests on the fitted dose curve; in most records, active means well fitted inhibition curve with a large enough effect (not every such curve was filed as active); inconclusive means small, poorly fitted or top-dose-only effect, or another doubt; inactive means no such curve, though single readings can be large or run the other way. A potency beside an inconclusive call is a rough fit, not a confirmed value.
What follows are molecules tested against Aldehyde dehydrogenase 1A1 (Homo sapiens) (UniProt P00352) (assay: qHTS Assay for Inhibitors of Aldehyde Dehydrogenase 1 (ALDH1A1)). Conditions: Purified ALDH1A1, NADH fluorescence, propionaldehyde substrate; series mostly up to 75.3 µM; activity, negative = inhibition: at the top concentration.
Sequence of UniProt P00352 (P00352 whole entry, looked up): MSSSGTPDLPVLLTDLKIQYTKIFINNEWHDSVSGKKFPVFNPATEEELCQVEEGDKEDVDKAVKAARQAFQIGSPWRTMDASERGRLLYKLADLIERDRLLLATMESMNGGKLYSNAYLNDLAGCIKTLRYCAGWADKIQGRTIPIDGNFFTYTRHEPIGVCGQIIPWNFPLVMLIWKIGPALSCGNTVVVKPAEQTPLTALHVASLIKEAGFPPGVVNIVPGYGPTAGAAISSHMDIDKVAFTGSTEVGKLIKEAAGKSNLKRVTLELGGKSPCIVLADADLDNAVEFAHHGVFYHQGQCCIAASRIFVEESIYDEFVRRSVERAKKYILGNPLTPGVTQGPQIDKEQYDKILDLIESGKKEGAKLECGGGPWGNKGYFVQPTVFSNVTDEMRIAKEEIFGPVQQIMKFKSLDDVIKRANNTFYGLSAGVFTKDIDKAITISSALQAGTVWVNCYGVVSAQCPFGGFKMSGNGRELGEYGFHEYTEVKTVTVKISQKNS
Potency means the concentration at half of the fitted maximal effect; tags describe the fitted curve by direction and shape.
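Wherever activity, negative = inhibition is given: plate controls were no enzyme wells and a reference inhibitor.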

Potency, active:
CC(C)c1ccc(S(=O)(=O)N2CCN(C(C)C(=O)Nc3ccccc3-c3ccccc3)CC2)cc1 (stereo not drawn) 2.82 µM
CCOC(=O)c1cc(C)sc1/N=C/C1C(=O)CC(C)(C)CC1=O 12.6 µM
CCOc1cc2[nH]c(=S)n(CC3CCCO3)c(=O)c2cc1OCC (stereo not drawn) 2.51 µM
NC(=O)COC(=O)c1ccccc1SCC(=O)NC1CCCCCC1 28.2 µM

Potency, inconclusive:
COc1ccccc1NS(=O)(=O)c1cc(NC(=O)c2ccccc2F)ccc1N1CCOCC1 31.6 µM [inhibitor, single point]
C/C=C/c1ccc(OCCCCOc2ccccc2C(C)=O)c(OC)c1 22.4 µM [inhibitor, single point]
COc1cc(C2NC(=O)NC(O)(C(F)(F)F)C2C(C)=O)cc(OC)c1OC (stereo not drawn) 22.4 µM [inhibitor, partial curve, poor fit]
COn1c(=O)c(-c2ccc(Cl)cc2)[n+]([O-])c2ccccc21 39.8 µM [inhibitor, single point]
O=c1cnc2cnc(Oc3ccccc3)nc2n1Cc1ccc(F)cc1 44.7 µM [inhibitor, single point]
CC(=O)c1sc(NS(=O)(=O)c2ccc(C)cc2)nc1C 44.7 µM [inhibitor, single point]
CC(=O)Nc1ccc(NC(=O)C(C)c2cccc(C(=O)c3ccccc3)c2)cc1 (stereo not drawn) 44.7 µM [inhibitor, single point]
CCC(C)c1ccc(NC(=O)C2CCN(c3ncccn3)CC2)cc1 (stereo not drawn) 8.91 µM [inhibitor, partial curve]
CCC(CC)c1nnc(NC(=O)Oc2ccccc2)s1 14.1 µM [inhibitor, partial curve]
C=CCOC(=O)C1=C[C@@H](c2coc3ccccc3c2=O)C[C@@H](OCc2ccc(CO)cc2)O1 20 µM [inhibitor, partial curve]
O=c1[nH]c(CSc2ncccn2)nc2c1cnn2-c1ccccc1 28.2 µM [inhibitor, single point]
O=c1cc(CN2CCc3ccccc32)nc2sccn12 39.8 µM [inhibitor, single point]
CCS(=O)(=O)Nc1cccc(C2=NN(S(=O)(=O)c3ccccc3)C(c3cccs3)C2)c1 (stereo not drawn) 0.316 µM [inhibitor, full curve]
CCSc1nnc(-c2cc(Br)ccc2N=Cc2c(C)[nH]n(-c3ccccc3)c2=O)c(=O)[nH]1 39.8 µM [inhibitor, single point]
Cc1onc(-c2ccccc2Cl)c1C(=O)Nc1nnc(-c2cccc([N+](=O)[O-])c2)s1 39.8 µM [inhibitor, single point]
CCOc1ccc(C(=O)NC(=S)Nc2ccccc2N2CCCCC2)cc1[N+](=O)[O-] 8.91 µM [inhibitor, partial curve]
Cc1ccc(C(=O)CSc2nn3c(=O)c(C(C)(C)C)nnc3s2)cc1 1 µM [inhibitor, full curve]
CCCc1nc2c(sc3nc4c(cc32)COC(C)(C)C4)c(=O)n1CCN(C)C 7.94 µM [inhibitor, partial curve]
O=C(O)c1ccccc1C(=O)c1ccc(Br)s1 35.5 µM [inhibitor, single point]
CC(=O)c1cccc(S(=O)(=O)Nc2ccc3nc(C)sc3c2)c1 39.8 µM [inhibitor, single point]
O=C(COc1cccnc1[N+](=O)[O-])Nc1cccc(S(=O)(=O)N2CCCCC2)c1 22.4 µM [inhibitor, partial curve]
N/C(=N\S(=O)(=O)c1ccccc1)c1ccc([N+](=O)[O-])cc1 39.8 µM [inhibitor, single point]
CCC(=O)NC(=S)Nc1ccc(NC(=O)c2ccc([N+](=O)[O-])cc2Cl)cc1 8.91 µM [inhibitor, single point]
O=[N+]([O-])c1cccc(CSc2nnc3ccccn23)c1 39.8 µM [inhibitor, single point]
CCN1c2ccccc2-c2nc3ccccc3n2C1c1ccccn1 (stereo not drawn) 28.2 µM [inhibitor, partial curve]
COC(=O)CSC1=C(C#N)C(c2ccc(C)cc2)C2=C(CCCC2=O)N1 (stereo not drawn) 39.8 µM [inhibitor, single point]
COc1ccc(C(=O)O/N=C(/c2ccccc2)c2ccncc2)cc1OC 10 µM [inhibitor, partial curve]
O=C(Nc1cc(C(F)(F)F)ccc1N1CCCC1)c1ccc2c(c1)OCO2 39.8 µM [inhibitor, partial curve, poor fit]
CCCCN(CCCC)c1nc2ccccc2nc1NS(=O)(=O)c1ccc(NC(C)=O)cc1 25.1 µM [inhibitor, partial curve]
Cc1ccc(-c2ccc(SCC(=O)c3ccccc3)nn2)cc1 39.8 µM [inhibitor, single point]
Cc1ccc(CNC(=O)c2ccc(CNc3c(N4CCCC4)c(=O)c3=O)cc2)cc1 39.8 µM [inhibitor, single point]

activity, negative = inhibition, inactive:
Cc1ccc(NC(=O)c2cc(-n3cnnc3)ccc2Cl)cc1 -0.185%
CCn1c(SCc2nc(-c3ccc(OC)c(OC)c3)no2)nnc1-c1cccs1 -8.68%
COC(=O)c1cc(S(=O)(=O)n2nc(C)c(Br)c2C)c(Cl)cc1Cl -0.855%
COc1ccc(CNC(=O)C(=O)NC2CCC(C)CC2)cc1 (stereo not drawn) -0.133%
CC(=O)Nc1ccc(-c2ccccc2)s1 8.12%
O=C(N1CCCCC1)N1CCN(C(c2ccccc2)c2ccccc2)CC1 -12.4%
CCCN(c1ccc(OCC)cc1)S(=O)(=O)c1ccc2c(c1)CCN2C(=O)CCC(=O)O 3%
COc1cc(-c2nc(Cc3c(F)cccc3Cl)no2)cc(OC)c1OC -1.42%
